Consider 40 compounds from the antibiotic and cytotoxicity screens of Wong et al. (2023).

The other results are listed elsewhere or left out.

The test system of the experiment is HSkMC (human skeletal muscle cells). Description: cytotoxicity call (relative viability < 0.9). The note with it: 10 µM.
On to `CN(C)CCCNC(=O)C[C@@H]1C=C[C@H](NS(=O)(=O)c2ccccc2)[C@@H](CO)O1`, for which the cytotoxicity call is “inactive”.

Take `C[C@H]1CN([C@@H](C)CO)C(=O)c2cccc(NC(=O)C3CCOCC3)c2O[C@H]1CN(C)Cc1ccncc1`: the cytotoxicity call is “inactive”.

With `C[C@H](CO)N1C[C@H](C)[C@@H](CN(C)C(=O)Cc2ccccc2)OCCCC[C@H](C)Oc2ccc(NC(=O)Nc3ccc(F)cc3)cc2C1=O`, the cytotoxicity call is “inactive”.

For the compound `C[C@@H]1CCCCO[C@@H](CN(C)Cc2ccc3c(c2)OCO3)[C@@H](C)CN([C@H](C)CO)C(=O)c2cc(NC(=O)Nc3ccccc3)ccc2O1`, the cytotoxicity call is “inactive”.

Turning to `C[C@H]1CN([C@@H](C)CO)C(=O)c2cc(NC(=O)CCN3CCOCC3)ccc2O[C@@H]1CN(C)C(=O)Nc1ccc2c(c1)OCO2`, the cytotoxicity call was “inactive”.

On to `COc1ccc(S(=O)(=O)N(C)C[C@@H]2Oc3ccc(NC(=O)Cc4ccccc4)cc3CC(=O)N([C@H](C)CO)C[C@H]2C)cc1`, for which the cytotoxicity call was “inactive”.

Consider `COC(=O)[C@H](Cc1ccccc1)N1C[C@](C)(OC(C)C)O[C@@H](CCn2cc(COc3ccccc3/C=C(C)/C=C/C(=O)NO)nn2)[C@@H]1/C=C/C1CC1`, for which the cytotoxicity call was “inactive”.

For `C[C@@H]1CN([C@H](C)CO)C(=O)c2cc(C#CC3CCCC3)cnc2O[C@H]1CN(C)S(=O)(=O)c1cccc(F)c1`, the cytotoxicity call was “inactive”.

`C[C@@H]1CCCCO[C@@H](CN(C)Cc2ccc(C(F)(F)F)cc2)[C@@H](C)CN([C@@H](C)CO)C(=O)c2cc(NC(=O)C3CCCCC3)ccc2O1`: the cytotoxicity call was “inactive”.

Take `N[C@H]1CC[C@@H](NC(=O)[C@H]2CCc3ccccc32)CC1`: the cytotoxicity call was “inactive”.

With `COc1ccc(S(=O)(=O)N(C)C[C@H]2Oc3ccc(NC(=O)Cc4ccccc4)cc3CC(=O)N([C@@H](C)CO)C[C@@H]2C)cc1`, the cytotoxicity call was “inactive”.

In the case of `C[C@H]1CN([C@@H](C)CO)C(=O)c2cc(NS(=O)(=O)c3ccc(F)cc3)ccc2O[C@H]1CN(C)Cc1ccc(-c2ccccc2)cc1`, the cytotoxicity call is “inactive”.

Turning to `C[C@H](CO)N1C[C@H](C)[C@@H](CN(C)S(=O)(=O)c2cccs2)Oc2ccc(NS(=O)(=O)c3ccc(F)cc3)cc2CC1=O`, the cytotoxicity call is “inactive”.

For `C[C@H]1CCCCO[C@H](CN(C)C(=O)c2ccncc2)[C@@H](C)CN([C@@H](C)CO)C(=O)c2cc(NS(=O)(=O)c3ccc(Cl)cc3)ccc2O1`, the cytotoxicity call is “inactive”.

Consider `Cc1ccc(S(=O)(=O)Nc2ccc3c(c2)C(=O)N(C)[C@H]2CC[C@@H](CC(=O)NCCc4ccncc4)O[C@@H]2CO3)cc1`, for which the cytotoxicity call was “inactive”.

`Cc1noc(C)c1S(=O)(=O)Nc1ccc2c(c1)CC(=O)N([C@H](C)CO)C[C@@H](C)[C@@H](CN(C)S(=O)(=O)c1ccc(Cl)cc1)O2`: the cytotoxicity call is “inactive”.

On to `CC(C)C[C@@H]1NC(=O)[C@@H]2C[C@H](C(=O)NCCCCCNC(=O)CS)[C@H](c3cccc(OCCO)c3)N2C1=O`, for which the cytotoxicity call is “inactive”.

For `C[C@@H]1CN([C@H](C)CO)C(=O)c2cc(C#CC(C)(C)O)cnc2O[C@H]1CN(C)Cc1cccc(C(=O)O)c1`, the cytotoxicity call is “inactive”.

Take `CO[C@@H]1CN(C)C(=O)c2cc(NS(=O)(=O)CC(F)(F)F)ccc2OC[C@@H](C)N(Cc2ccccn2)C[C@@H]1C`: the cytotoxicity call is “inactive”.

As to `COc1ccc(S(=O)(=O)N(C)C[C@@H]2Oc3ccc(NC(=O)Nc4cccc5ccccc45)cc3C(=O)N([C@@H](C)CO)C[C@H]2C)cc1`, the cytotoxicity call is “active”.

On to `CCCN(C)C[C@H]1OCCCC[C@@H](C)Oc2ccc(NC(=O)Nc3ccc(F)cc3)cc2C(=O)N([C@H](C)CO)C[C@@H]1C`, for which the cytotoxicity call was “inactive”.

For the compound `C[C@@H]1CN([C@@H](C)CO)C(=O)c2cc(Br)cnc2O[C@H]1CN(C)Cc1ccccc1C(=O)O`, the cytotoxicity call is “inactive”.

For the compound `C=CCN1C(=O)[C@@]2(O[C@H](CCOC(=O)NCCCCCC(=O)NO)[C@@H]([Si](C)(C)c3ccc(OC)cc3)[C@@H]2C)c2cc(I)ccc21`, the cytotoxicity call is “inactive”.

Consider `C[C@H](CO)N1C[C@H](C)[C@@H](CN(C)S(=O)(=O)c2ccc(F)cc2)Oc2ccc(NS(=O)(=O)c3cccs3)cc2CC1=O`, for which the cytotoxicity call was “inactive”.

Turning to `CCn1c(=S)ccc2ccccc21`, the cytotoxicity call is “inactive”.

On to `OCCN1CNC(=S)NC1`, for which the cytotoxicity call was “inactive”.

As for `Cc1ccc(S(=O)(=O)N2C[C@H](O)COC[C@@H]3O[C@H](CC(=O)NCCCN(C)C)CC[C@H]32)cc1`, the cytotoxicity call is “inactive”.

In the case of `C=CC(C)(O)CCC=C(C)C` (stereo not given), the cytotoxicity call is “inactive”.

On to `Nc1nc2c(ncn2COCCO)c(=O)[nH]1`, for which the cytotoxicity call was “inactive”.

In the case of `CCS(=O)(=O)N1CC[C@]2(CC1)CN(Cc1ccc3c(c1)OCO3)[C@@H](CO)c1[nH]c3cc(ccc3c12)OC`, the cytotoxicity call was “inactive”.

`CC(=O)NCC(=O)N1Cc2nccn2C[C@H](Cn2nc(C)nc2C)C1`: the cytotoxicity call is “inactive”.

In the case of `COc1ccc(CN(C)C[C@H]2OCCCC[C@H](C)Oc3ccc(NC(=O)Nc4ccccc4)cc3C(=O)N([C@H](C)CO)C[C@H]2C)cc1`, the cytotoxicity call was “inactive”.

In the case of `C[C@H](O)C#Cc1ccc2c(c1)O[C@H](CN(C)C(=O)CN(C)C)[C@@H](C)CN([C@H](C)CO)S2(=O)=O`, the cytotoxicity call was “inactive”.

Consider `C[C@@H]1CN([C@H](C)CO)C(=O)c2cccc(NS(=O)(=O)c3cccs3)c2O[C@@H]1CN(C)S(=O)(=O)c1cccs1`, for which the cytotoxicity call is “inactive”.

Consider `O=c1nc2[nH][nH]cc-2c(=O)[nH]1`, for which the cytotoxicity call was “inactive”.

On to `O=C(O)c1cc(N=Nc2ccc(S(=O)(=O)Nc3ccccn3)cc2)ccc1O`, for which the cytotoxicity call is “inactive”.

`O=C(C[C@H]1CC=CC[C@H](NC(=O)OCC2c3ccccc3-c3ccccc32)C(=O)OCCNC1=O)NCCO`: the cytotoxicity call is “inactive”.

`C[C@H](CO)N1C[C@H](C)[C@@H](CN(C)Cc2ccc(C(F)(F)F)cc2)OCCCC[C@H](C)Oc2ccc(NC(=O)CCCN(C)C)cc2C1=O`: the cytotoxicity call is “inactive”.

Regarding `COC(=O)C1C(O)CCC2CN3CCc4c([nH]c5ccccc45)C3CC21` (stereo not given), the cytotoxicity call is “inactive”.

For `COc1ccc(CN(C)C[C@@H]2OCCCC[C@@H](C)Oc3ccc(NC(=O)Cc4ccccc4)cc3C(=O)N([C@H](C)CO)C[C@H]2C)cc1`, the cytotoxicity call is “inactive”.
